pIC50: −log10 of the molar value.

In the assay the target is CtermHisTag-mEGFR Triple Mutant (R797S, L858R, T790M) (Homo sapiens, UniProt P00533, C797S/L858R/T790M). Put plainly: TR-FRET probe displacement, EGFR triple mutant. The following applies: 1.25 nM EGFR, 100 nM probe, 30 mins room temperature. A general note: TR-FRET usually uses a lanthanide donor and a delayed reading to cut background.
For the molecule `C#Cc1cc(=O)n2c3nc(ncc13)Nc1ccc(N3CCN(C)CC3)c(c1)NC(=O)CCC2` [Example 222, 1^5-ethynyl-3^4-(4-methylpiperazin-1-yl)-1^7,1^8-dihydro-2,4-diaza-1(2,8)-pyrido[2,3-d]pyrimidina-3(1,3)-benzenacyclooctaphane-1^7,5-dione], the pIC50 (usually the negative decadic logarithm of the IC50, by convention in mol/L) was over 7.70.

For `C#Cc1cc(=O)n2c3nc(ncc13)Nc1ccc(N3CCN(C)CC3)c(c1)CN(C)C(=O)CC2` [Example 223, 1^5-Ethynyl-5-methyl-3^4-(4-methylpiperazin-1-yl)-1^7,1^8-dihydro-2,5-diaza-1(2,8)-pyrido[2,3-d]pyrimidina-3(1,3)-benzenacyclooctaphane-1^7,6-dione], the pIC50 was over 7.70.

As to `C#Cc1cc(=O)n2c3nc(ncc13)Nc1ccc(N3CCN(C)CC3)c(c1)C(=O)NCCC2` [Example 224, 1^5-ethynyl-3^4-(4-methylpiperazin-1-yl)-1^7,1^8-dihydro-2,5-diaza-1(2,8)-pyrido[2,3-d]pyrimidina-3(1,3)-benzenacyclooctaphane-1^7,4-dione], the negative-log IC50 (pIC50) was 4.30 to 6.00.

For the molecule `C#Cc1cc(=O)n2c3nc(ncc13)Nc1ccc(N3CCN(C)CC3)c(c1)N(C)C(=O)CCC2` [Example 225, 1^5-Ethynyl-4-methyl-3^4-(4-methylpiperazin-1-yl)-1^7,1^8-dihydro-2,4-diaza-1(2,8)-pyrido[2,3-d]pyrimidina-3(1,3)-benzenacyclooctaphane-1^7,5-dione], the pIC50 is 7.00 to 7.70.

The molecule `C#Cc1cc(=O)n2c3nc(ncc13)Nc1ccc(N3CCN(C)CC3)c(c1)CN(C)CCC2` [Example 226, 1^5-Ethynyl-5-methyl-3^4-(4-methylpiperazin-1-yl)-1^7,1^8-dihydro-2,5-diaza-1(2,8)-pyrido[2,3-d]pyrimidina-3(1,3)-benzenacyclooctaphan-1^7-one] gave a pIC50 of 6.00 to 7.00.

The molecule `C#Cc1cc(=O)n2c3nc(ncc13)Nc1ccc(N3CCN(C)CC3)c(c1)CCNC(=O)C2` [Example 227, 1^5-Ethynyl-3^4-(4-Methylpiperazin-1-yl)-1^7,1^8-dihydro-2,6-diaza-1(2,8)-pyrido[2,3-d]pyrimidina-3(1,3)-benzenacyclooctaphane-1^7,7-dione] had a pIC50 of 6.00 to 7.00.

`C#Cc1cc(=O)n2c3nc(ncc13)Nc1ccc(N3CCN(C)CC3)c(c1)OCCCCC2C` (centres unmarked) [Example 228, 1^5-Ethynyl-9-methyl-3^4-(4-methylpiperazin-1-yl)-1^7,1^8-dihydro-4-oxa-2-aza-1(2,8)-pyrido[2,3-d]pyrimidina-3(1,3)-benzenacyclononaphan-17-one] gave a pIC50 of 7.00 to 7.70.

With `C#Cc1c(C)c(=O)n2c3nc(ncc13)Nc1ccc(N3CCN(C)CC3)c(c1)OCCCCC2` [Example 229, 1^5-Ethynyl-1^6-Methyl-3^4-(4-methylpiperazin-1-yl)-1^7,1^8-dihydro-4-oxa-2-aza-1(2,8)-pyrido[2,3-d]pyrimidina-3(1,3)-benzenacyclononaphan-1^7-one], the pIC50 is 7.00 to 7.70.

Take `C#Cc1cc(=O)n2c3nc(ncc13)Nc1ccc(N3CCN(C)CC3)c(c1)OCCCCCC2` [Example 230, 1^5-ethynyl-3^4-(4-methylpiperazin-1-yl)-1^7,1^8-dihydro-4-oxa-2-aza-1(2,8)-pyrido[2,3-d]pyrimidina-3(1,3)-benzenacyclodecaphan-1^7-one]: the pIC50 was over 7.70.

`C#Cc1cc(=O)n2c3nc(ncc13)Nc1ccc(N3CCN(C)CC3)c(c1)COCCCC2` [Example 231, 1^5-Ethynyl-3^4-(4-methylpiperazin-1-yl)-1^7,1^8-dihydro-5-oxa-2-aza-1(2,8)-pyrido[2,3-d]pyrimidina-3(1,3)-benzenacyclononaphan-1^7-one] gave a pIC50 of 7.00 to 7.70.

Turning to `C#Cc1cc(=O)n2c3nc(ncc13)Nc1ccc(N3CCN(C)CC3)c(c1)OCCOCC2` [Example 232, 1^5-Ethynyl-3^4-(4-Methylpiperazin-1-yl)-1^7,1^8-dihydro-4,7-dioxa-2-aza-1(2,8)-pyrido[2,3-d]pyrimidina-3(1,3)-benzenacyclononaphan-1^7-one], the pIC50 was over 7.70.

The molecule `C#Cc1cc(=O)n2c3nc(ncc13)Nc1ccc(N3CCN(C)CC3)c(c1)OC[C@@H]1CC[C@@H](C1)C2` [Example 233, (5^1S,5^3R)-3^5-Ethynyl-1^4-(4-methylpiperazin-1-yl)-3^7,3^8-dihydro-7-oxa-2-aza-3(2,8)-pyrido[2,3-d]pyrimidina-1(1,3)-benzena-5(1,3)-cyclopentanacycloheptaphan-3^7-one] had a pIC50 of over 7.70.

Molecule `C#Cc1cc(=O)n2c3nc(ncc13)Nc1ccc(N3CCN(C)CC3)c(c1)S(=O)(=O)NCCC2` [Example 234, 1^5-Ethynyl-3^4-(4-methylpiperazin-1-yl)-1^7,1^8-dihydro-4-thia-2,5-diaza-1(2,8)-pyrido[2,3-d]pyrimidina-3(1,3)-benzenacyclooctaphan-1^7-one 4,4-dioxide] gave a negative logarithm of the IC50 (pIC50) of 7.00 to 7.70.

In turn, `C#Cc1cc(=O)n2c3nc(ncc13)Nc1ccc(N3CCN(C(C)C)CC3)c(c1)NC(=O)CCC2` [Example 235, 1^5-Ethynyl-3^4-(4-isopropylpiperazin-1-yl)-1^7,1^8-dihydro-2,4-diaza-1(2,8)-pyrido[2,3-d]pyrimidina-3(1,3)-benzenacyclooctaphane-1^7,5-dione] gave a negative-log IC50 (pIC50) of over 7.70.

For the molecule `C#Cc1cc(=O)n2c3nc(ncc13)Nc1ccc(N3CCN(CCOC)CC3)c(c1)NC(=O)CCC2` [Example 236, 1^5-Ethynyl-3^4-(4-(2-methoxyethyl)piperazin-1-yl)-1^7,1^8-dihydro-2,4-diaza-1(2,8)-pyrido[2,3-d]pyrimidina-3(1,3)-benzenacyclooctaphane-1^7,5-dione], the pIC50 is over 7.70.

For `C#Cc1cc(=O)n2c3nc(ncc13)Nc1ccc(N3CCN(C)CC3)c(c1)CNC(=O)CCC2` [Example 237, 1^5-Ethynyl-3^4-(4-methylpiperazin-1-yl)-1^7,1^8-dihydro-2,5-diaza-1(2,8)-pyrido[2,3-d]pyrimidina-3(1,3)-benzenacyclononaphane-1^7,6-dione], the pIC50 is 7.00 to 7.70.

Turning to `C#Cc1cc(=O)n2c3nc(ncc13)Nc1ccc(N3CCCN(C)CC3)c(c1)NC(=O)CCC2` [Example 238, 1^5-Ethynyl-3^4-(4-methyl-1,4-diazepan-1-yl)-1^7,1^8-dihydro-2,4-diaza-1(2,8)-pyrido[2,3-d]pyrimidina-3(1,3)-benzenacyclooctaphane-1^7,5-dione], the pIC50 was over 7.70.

With `C#Cc1cc(=O)n2c3nc(ncc13)Nc1ccc(N3CCN(C)CC3)c(c1)OCCC[C@H]2C` [Example 239, (R)-1^5-ethynyl-8-methyl-3^4-(4-methylpiperazin-1-yl)-1^7,1^8-dihydro-4-oxa-2-aza-1(2,8)-pyrido[2,3-d]pyrimidina-3(1,3)-benzenacyclooctaphan-1^7-one], the negative-log IC50 (pIC50) was over 7.70.

On to `C#Cc1cc(=O)n2c3nc(ncc13)Nc1ccc(N3CCN(C)CC3)c(c1)CCOCC2` [Example 240, 1^5-Ethynyl-3^4-(4-methylpiperazin-1-yl)-1^7,1^8-dihydro-6-oxa-2-aza-1(2,8)-pyrido[2,3-d]pyrimidina-3(1,3)-benzenacyclooctaphan-1^7-one], for which the pIC50 was over 7.70.

In turn, `C#Cc1cc(=O)n2c3nc(ncc13)Nc1ccc(N3CCN(CCOC)CC3)c(c1)OCCCC2` [Example 241, 1^5-Ethynyl-3^4-(4-(2-methoxyethyl)piperazin-1-yl)-1^7,1^8-dihydro-4-oxa-2-aza-1(2,8)-pyrido[2,3-d]pyrimidina-3(1,3)-benzenacyclooctaphan-1^7-one] gave a pIC50 of over 7.70.

Values taken from patent US20260137703A1, “2-AMINO-PYRIDO[2,3-D]PYRIMIDIN-7(8H)-ONE AND 7-AMINO-1-PYRIMIDO[4,5-D]PYRIMIDIN-2(1 H)-ONE DERIVATIVES AS EGFR INHIBITORS FOR THE TREATMENT OF CANCER” (Cancer Research Technology Limited, priority 2022, published 2026).
